Results as given in PubChem BioAssay AID1347073 (National Center for Advancing Translational Sciences (NCATS), 2019).
In all, about 45,000 compounds went through this assay and about 200 (0.44%) were called active. Inconclusive results (about 7%) are left out. The call rests on the fitted dose curve; in most records, active means well fitted activation curve with a large enough effect; inconclusive means small, poorly fitted or top-dose-only effect; inactive means no such curve, though single readings can be large or run the other way. Some of the results follow.

Assay: qHTS of TDP-43 Inhibitors: NCGC Sytravon Library Screen; further: 0% is about no effect; nearly all actives have a fitted effect of over 55% in size
Details: yeast TDP-43 toxicity rescue, BacTiter-Glo growth, 24 h; series mostly up to 46.1 µM; growth rescue (activation): at the top concentration
Summary of the method: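 TDP-43-expressing yeast, pregrown in raffinose, seeded at OD600 0.02 in galactose medium with compound for 24 hr at 30 deg C. Growth read by BacTiter-Glo luminescence, so rescue of toxicity appears as activation.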

| Compound | growth rescue (activation) |
| --- | --- |
| NC(Cc1c[nH]c2ccc(OCc3ccccc3)cc12)C(=O)O (stereo unspecified) | inactive: -1.34% |
| O=C(COC(=O)c1cc(S(=O)(=O)N2CCOCC2)ccc1F)NCc1ccc2c(c1)OCO2 | inactive: 6.58% |
| COCCNC(=O)C12CC3CC(C1)CC(c1ccccc1)(C3)C2 | inactive: -16.7% |
| CCNC(=O)N1CCC(n2nccc2NC(=O)CCCc2ccccc2)CC1 | inactive: 10.7% |
| COc1ccc(OCCn2cc(/C=C(\C#N)C(=O)NCc3ccco3)c3ccccc32)cc1 | inactive: 5.1% |
| C/C(=N\N1CCN(c2ccccc2)CC1)c1cccs1 | inactive: 9.2% |
| CCNC(=S)N(CCc1c(C)[nH]c2ccc(Cl)cc12)Cc1cccnc1 | inactive: 14.7% |
| COCCNC(=O)C1(C)CCCN(C(=O)c2cccc(Cl)c2)C1 (stereo unspecified) | inactive: -17.7% |
| COc1ccccc1CCC(=O)NNC(=O)c1cccs1 | inactive: 10.7% |
| Cc1ccc(NC(=O)[C@@H]2CCCN2S(=O)(=O)c2ccccc2F)cc1 | inactive: 28% |
| COc1ccc(-n2ncc(C(C)NS(=O)(=O)c3ccc(C(C)=O)cc3)c2C)cc1 (stereo unspecified) | inactive: 18.7% |
| O=C(CCNC(=O)c1ccco1)Nc1ccc(OC(F)F)c(Cl)c1 | inactive: -18.5% |
| COc1cc(/C=C2\SC(=S)N(NS(=O)(=O)c3ccccc3)C2=O)cc(OC)c1OC | inactive: 16.6% |
| CC(C)c1ccc(NC(=O)C[n+]2ccn(C3=C([O-])c4ccccc4C3=O)c2)cc1 | inactive: 7.25% |
| COCCc1nc2ccc(C(=O)N(C)Cc3cccc(-n4nc(C)cc4C)c3)cc2o1 | inactive: 19.6% |
| CCOC(=O)C(CC)n1cnc2sc3c(c2c1=O)CCC3 (stereo unspecified) | inactive: 5.71% |
| CCc1ccc(S(=O)(=O)NC2CC(C)(C)NC(C)(C)C2)cc1 | inactive: -3.19% |
| O=S(=O)(NCCc1ccccc1)c1cccs1 | inactive: 2.59% |
| CCOc1ccc(-c2cc(C(=O)Nc3ccc(F)cc3)[nH]n2)c(C)c1 | inactive: 12.4% |
| O=C(O)CCSc1nnc(COc2cccc3ccccc23)n1-c1cccc(Cl)c1 | inactive: 23% |
| O=C(CNC(=O)c1ccc(Cl)cc1)N/N=C/C=C/c1ccccc1 | inactive: 11% |
| CC(C)(C)NC(=O)CN(C(=O)c1ccc(Cl)nc1)c1cccc2ccccc12 | inactive: 4.47% |

| Compound | growth rescue (activation) |
| --- | --- |
| Cc1ccccc1-n1c(C)cc(/C=N/Nc2ccc([N+](=O)[O-])cn2)c1C | inactive: -1.06% |
| C=CCn1c(SCC(=O)N2CCOCC2)nc2sc(C)c(C)c2c1=O | inactive: 16.4% |
| Cc1ccc(CNC(=O)c2ccc3c(c2)N(Cc2ccccc2)C(=O)c2ccccc2S3(=O)=O)cc1 | inactive: 34.3% |
| CN1CC(=O)N(CC(=O)NC2CCCCC2)C1=O | inactive: 16.6% |
| CCOc1ccccc1N(CC(=O)N1CCC(C)CC1)S(=O)(=O)c1ccc(C)cc1 | inactive: 8.01% |
| O=C(Cn1c(=O)oc2ccccc21)Nc1nc(-c2ccc(Br)cc2)cs1 | inactive: -25.5% |
| CCCCCCCN1C2=NCCCN2c2ccccc21 | inactive: 4.92% |
| CC(=O)Nc1cc(O)cc(O)c1 | inactive: 10.5% |
| CCOc1cc(CNC(C)(C)C)ccc1OCC(=O)Nc1cccc(C(F)(F)F)c1 | inactive: -12.4% |
| COc1ccc2c(Sc3ccccc3)c(C(=O)NCCCN3CCCCC3)[nH]c2c1 | inactive: 15.7% |
| CC(=O)c1ccc(S(=O)(=O)N2CCNC(=O)C2)cc1 | inactive: 16.5% |
| Cc1cccc(C(=O)Nc2ccccc2NC(=O)c2cccc(C)c2)c1 | inactive: 3.96% |
| COCCNC(=O)C1CCCN(Cc2ccccc2)CC1 (stereo unspecified) | inactive: 5.59% |
| Cc1cccc(C(=O)NC2CC(C)(C)NC(C)(C)C2)c1 | inactive: 8.39% |
| Cc1ccsc1/C=N/Nc1nc(=O)[nH]nc1C | inactive: -44.4% |
| CC(=O)c1cccc(NC(=O)COC(=O)[C@@H](NC(=O)OCc2ccccc2)C(C)C)c1 | inactive: 26.7% |
| CC(=O)OC[C@@H]1CN(Cc2cccc(C(F)(F)F)c2)C[C@H](n2cnc3c(N4CCOCC4)ncnc32)O1 | inactive: 21.4% |
| O=C(NCC1CCCN(C(=O)NCc2ccccc2)C1)c1ccc2c(c1)OCO2 (stereo unspecified) | inactive: 8.89% |
| CC(C)c1ccccc1NC(=O)CNC(C)c1ccc(F)cc1 (stereo unspecified) | inactive: 6.47% |
| CCOc1ccc(S(=O)(=O)N2CCCC(C(=O)NCc3ccncc3)C2)cc1C (stereo unspecified) | inactive: 9.14% |
| COc1cc(OC)cc(C(=O)NCC(=O)OCC(=O)NC(C)(C)C)c1 | inactive: 12% |
| COc1ccc2c(c1OC)C(=O)N(c1nccs1)C2 | inactive: 18.9% |

| Compound | growth rescue (activation) |
| --- | --- |
| O=C(O)c1cn(-c2ccc(F)cc2)c(=O)c2ccccc12 | inactive: 3.74% |
| COC(=O)c1ccc(NC(=S)NNC(=O)CC(C)C)cc1 | inactive: -2.12% |
| S=c1[nH]cc(-c2ccc(Cl)cc2)n1-c1ccccc1 | inactive: -9.7% |
| CN1CCN(C(=O)c2cc3sc4ccccc4c3s2)CC1 | inactive: 2.75% |
| C/C(=C\C(=O)c1ncc(C(F)(F)F)cc1Cl)N(C)C | inactive: 3.57% |
| C#CCOc1ccc(/C=C2/C(=O)N(c3cccc(C(=O)O)c3)N=C2C)cc1OC | inactive: -8.28% |
| CCCc1cc(=O)[nH]c(SCC(=O)Nc2nonc2C)n1 | inactive: -16.2% |
| COc1ccc(/C=N/Nc2nc(-c3ccc(Cl)cc3)cc(C(F)(F)F)n2)c(OC)c1 | inactive: 4.76% |
| COc1ccc(N(C(=O)c2snc(C(N)=O)c2N)C(C(=O)NC2CCCC2)c2ccc3ncccc3c2)cc1 (stereo unspecified) | inactive: 0.462% |
| COCCNC(=O)C1(C)CCN(Cc2ccc(C(C)C)cc2)C1 (stereo unspecified) | inactive: 10.2% |
| c1ccc(-c2cc3nc(NCc4cccs4)ccn3n2)cc1 | inactive: 19.7% |
| COc1ccc(NC(=O)CSc2nnnn2C)cc1S(=O)(=O)N1CCCCC1 | inactive: -0.951% |
| CNc1nc(-c2ccccc2)nc(-c2ccc(OC)cc2)c1C#N | inactive: -3.22% |
| COc1ccc(C(CNc2ncnc3sc(C)c(C)c23)N(C)C)cc1 (stereo unspecified) | inactive: -26.4% |
| Cc1ccc(C(=O)OCC(=O)NCc2cccs2)c(C)c1 | inactive: 14.9% |
| O=C(CSc1nc2ccccc2c(=O)n1-c1ccc(SC(F)F)cc1)Nc1ccc(N2CCOCC2)cc1 | inactive: -8.81% |
| Cc1cc(=O)oc2cc(OCC(=O)N/N=C/c3ccccc3O)ccc12 | inactive: 9.31% |
| Cc1cccc(C(c2c(C)nn(-c3ccccc3)c2N)c2c(C)nn(-c3ccccc3)c2N)c1 | inactive: 10.2% |
| OCCCNCc1ccc(N(c2ccccc2)c2ccccc2)cc1 | inactive: -18.9% |
| CC(NCC(O)COCc1ccc(Cl)cc1)c1ccccc1 (stereo unspecified) | inactive: 7.44% |
| CCCCNC(=O)C1CCN(c2nc(C)cc(C)n2)CC1 | inactive: 2.64% |
| O=C1c2c([N+](=O)[O-])cc([N+](=O)[O-])cc2S(=O)N1Cc1ccccc1 (stereo unspecified) | inactive: -5.92% |

| Compound | growth rescue (activation) |
| --- | --- |
| O=C(NC1CCS(=O)(=O)C1)c1cccc(S(=O)(=O)N2CCCC2)c1 (stereo unspecified) | inactive: 6.26% |
| Cc1ccc(C)c(NC(=O)CSc2n[nH]c(-c3ccccn3)n2)c1 | inactive: 18.5% |
| CC(C)CC(=O)NC(NCC1CCCO1)C(Cl)(Cl)Cl (stereo unspecified) | inactive: -39.6% |
| CCN(CC)S(=O)(=O)c1cccc(C(=O)N/N=C/c2cccc(O)c2O)c1 | inactive: -0.865% |
| CCC(c1nnnn1Cc1ccccc1)N1CCN(c2ccc(OC)cc2)CC1 (stereo unspecified) | inactive: 0.586% |
| CCOC(=O)C1(C)CCN1C(=O)COc1ccc(C(C)(C)C)cc1 (stereo unspecified) | inactive: 3.49% |
| O=C1SCCC1NS(=O)(=O)c1ccccc1[N+](=O)[O-] (stereo unspecified) | inactive: 0.512% |
| CC1(C)C(=O)C2(CCCCC2)C(=O)OC1C(=O)c1ccccc1 (stereo unspecified) | inactive: 0.663% |
| COc1cc(C2CC(=O)C3=C(C2)Nc2ncnn2C3c2cccs2)cc(OC)c1OC (stereo unspecified) | inactive: 13.2% |
| COc1ccc(C(NC(=O)C2CCN(CCCOc3ccccc3)CC2)c2ccccn2)cc1 (stereo unspecified) | inactive: -9.37% |
| CN1CCN(S(=O)(=O)c2ccc(N(C)Cc3ccc(C(F)(F)F)cc3)c([N+](=O)[O-])c2)CC1 | inactive: 12.2% |
| COc1cc(NS(=O)(=O)c2ccc(NC(=S)NC(=O)c3ccc(F)cc3)cc2)nc(OC)n1 | inactive: -0.428% |
| COc1cccc(OCC(=O)NNC(=O)CCc2ccccc2)c1 | inactive: 4.68% |
| CC(C)Cc1csc(NC(=O)c2ccc(Cl)cc2)c1C(=O)O | inactive: 5.02% |
| COC(=O)[C@@H]1CCCN1C(=O)CCc1nnc(C2CCCCC2)o1 | inactive: -5.23% |
| CC(C)CCN(C(=O)c1csnn1)C(C(=O)NC1CCCC1)c1ccccc1 (stereo unspecified) | inactive: 9.64% |
| COC(CNC(=O)c1ccc2c(c1)ncn2-c1ccc(C)cc1C)OC | inactive: 12% |
| CCSc1nnc(C)c2ccccc12 | inactive: 33.1% |
| COc1cc(-c2[nH]ncc2CN2CCSCC2)cc(OC)c1OC | inactive: -7.18% |
| O=C(OCC(=O)N1CCCC1)c1cnc(Cl)c(Cl)c1 | inactive: -6.5% |
| COc1cccc(C(=O)N/N=c2\sc3ccccc3n2C)c1 | inactive: 19% |
| O=C(CSc1ccccn1)N1CCN(C(=O)CSc2ccccn2)CC1 | inactive: 18.8% |

| Compound | growth rescue (activation) |
| --- | --- |
| Cc1ccc(OCC(=O)Nc2ccc(S(=O)(=O)Nc3ccccn3)cc2)cc1 | inactive: 0.375% |
| CCCOc1ccc(/C=N\NC(=O)CCc2n[nH]c(=O)[nH]c2=O)cc1OC | inactive: 8.21% |
| COc1ccc(/C=C(\NC(=O)c2ccccc2Cl)C(=O)NCCCC(=O)O)cc1 | inactive: 7.13% |
| Cc1ccc(NC(=O)CN(C)C(=O)Cc2ccc(Cl)c(Cl)c2)cc1 | inactive: -15.3% |
| COc1ccc(OCc2nnc3n2N=C(c2ccccc2)C(CC(=O)O)S3)cc1 (stereo unspecified) | inactive: -1.05% |
| COc1ccc(OCC(=O)Nn2c(-c3cccc(OC)c3)nc3ccccc3c2=O)cc1 | inactive: -8.56% |
| CC(=O)NCc1ccc(S(=O)(=O)NC(C)CCc2ccccc2)cc1 (stereo unspecified) | inactive: -2.49% |
| CCN(CC)CCCN1C(=O)C(=O)/C(=C(/O)c2ccccc2)C1c1cc(OC)ccc1OC (stereo unspecified) | inactive: 28.9% |
| C=CCNC(=S)NC1CC(C)(C)NC(C)(C)C1 | inactive: 2.83% |
| CCOc1ccccc1NC(=O)COC(=O)COc1c(Cl)cc(Cl)c2ccc(C)nc12 | inactive: 14.8% |
| COc1cccc(NC(=O)c2ccc3nc(C)c(N(C)Cc4ccc(NC(C)=O)cc4)n3c2)c1 | inactive: 8.72% |
| CC(C)c1ccc(NC(=O)C2(C)Cc3c(-c4ccc(C(N)=O)cc4)ccnc3O2)cc1 (stereo unspecified) | inactive: 24.5% |
| Fc1ccc(COc2ccc(-c3nnco3)cc2)c(Cl)c1 | inactive: 8.49% |
| CCc1cc2c(CN3CCN(Cc4ccccc4)CC3)cc(=O)oc2cc1O | inactive: 2.12% |
| Cc1c(CC(=O)NCCCCCC(=O)O)c(=O)oc2cc3occ(-c4ccccc4)c3cc12 | inactive: 8.74% |
| COC(=O)c1cc2c(cc1NC(=O)CSCCc1ccccn1)OCO2 | inactive: 11.6% |
| CC[n+]1ccc(C)c2cc(P(=O)(c3ccccc3)c3ccccc3)ccc21 | inactive: -33.2% |
| COc1ccccc1-n1cc([C@@H]2C[C@H]3CN(c4ccccc4)C(=O)[C@]34CCCN24)cn1 | inactive: -7.66% |
